Source: the supplement of paper PMC12423691
The list shows a part of the results. Binding of human transcription factors and regulators to the viral nucleoprotein by AlphaScreen, crude cell-free proteins, amounts not normalised, one pass. Fold of the Venus control; higher = more signal. No active / inactive call. Single-pass screen; sequences are the whole Swiss-Prot entries looked up by name.

B1: NR1D1, P20393 (protein)
chain: MTTLDSNNNTGGVITYIGSSGSSPSRTSPESLYSDNSNGSFQSLTQGCPTYFPPSPTGSLTQDPARSFGSIPPSLSDDGSPSSSSSSSSSSSSFYNGSPPGSLQVAMEDSSRVSPSKSTSNITKLNGMVLLCKVCGDVASGFHYGVHACEGCKGFFRRSIQQNIQYKRCLKNENCSIVRINRNRCQQCRFKKCLSVGMSRDAVRFGRIPKREKQRMLAEMQSAMNLANNQLSSQCPLETSPTQHPTPGPMGPSPPPAPVPSPLVGFSQFPQQLTPPRSPSPEPTVEDVISQVARAHREIFTYAHDKLGSSPGNFNANHASGSPPATTPHRWENQGCPPAPNDNNTLAAQRHNEALNGLRQAPSSYPPTWPPGPAHHSCHQSNSNGHRLCPTHVYAAPEGKAPANSPRQGNSKNVLLACPMNMYPHGRSGRTVQEIWEDFSMSFTPAVREVVEFAKHIPGFRDLSQHDQVTLLKAGTFEVLMVRFASLFNVKDQTVMFLSRTTYSLQELGAMGMGDLLSAMFDFSEKLNSLALTEEELGLFTAVVLVSADRSGMENSASVEQLQETLLRALRALVLKNRPLETSRFTKLLLKLPDLRTLNNMHSEKLLSFRVDAQ
B2: GABPB1, Q06547 (protein)
chain: MSLVDLGKKLLEAARAGQDDEVRILMANGAPFTTDWLGTSPLHLAAQYGHYSTTEVLLRAGVSRDARTKVDRTPLHMAASEGHASIVEVLLKHGADVNAKDMLKMTALHWATEHNHQEVVELLIKYGADVHTQSKFCKTAFDISIDNGNEDLAEILQIAMQNQINTNPESPDTVTIHAATPQFIIGPGGVVNLTGLVSSENSSKATDETGVSAVQFGNSSTSVLATLAALAEASAPLSNSSETPVVATEEVVTAESVDGAIQQVVSSGGQQVITIVTDGIQLGNLHSIPTSGIGQPIIVTMPDGQQVLTVPATDIAEETVISEEPPAKRQCIEIIENRVESAEIEEREALQKQLDEANREAQKYRQQLLKKEQEAEAYRQKLEAMTRLQTNKEAV
B3: ZNF583, Q96ND8 (protein)
chain: MSKDLVTFGDVAVNFSQEEWEWLNPAQRNLYRKVMLENYRSLVSLGVSVSKPDVISLLEQGKEPWMVKKEGTRGPCPDWEYVFKNSEFSSKQETYEESSKVVTVGARHLSYSLDYPSLREDCQSEDWYKNQLGSQEVHLSQLIITHKEILPEVQNKEYNKSWQTFHQDTIFDIQQSFPTKEKAHKHEPQKKSYRKKSVEMKHRKVYVEKKLLKCNDCEKVFNQSSSLTLHQRIHTGEKPYACVECGKTFSQSANLAQHKRIHTGEKPYECKECRKAFSQNAHLAQHQRVHTGEKPYQCKECKKAFSQIAHLTQHQRVHTGERPFECIECGKAFSNGSFLAQHQRIHTGEKPYVCNVCGKAFSHRGYLIVHQRIHTGERPYECKECRKAFSQYAHLAQHQRVHTGEKPYECKVCRKAFSQIAYLDQHQRVHTGEKPYECIECGKAFSNSSSLAQHQRSHTGEKPYMCKECRKTFSQNAGLAQHQRIHTGEKPYECNVCGKAFSYSGSLTLHQRIHTGERPYECKDCRKSFRQRAHLAHHERIHTMESFLTLSSPSPSTSNQLPRPVGFIS
B4: CEBPG, P53567 (protein)
chain: MSKISQQNSTPGVNGISVIHTQAHASGLQQVPQLVPAGPGGGGKAVAPSKQSKKSSPMDRNSDEYRQRRERNNMAVKKSRLKSKQKAQDTLQRVNQLKEENERLEAKIKLLTKELSVLKDLFLEHAHNLADNVQSISTENTTADGDNAGQ
B5: ELF1, P32519 (protein)
chain: MAAVVQQNDLVFEFASNVMEDERQLGDPAIFPAVIVEHVPGADILNSYAGLACVEEPNDMITESSLDVAEEEIIDDDDDDITLTVEASCHDGDETIETIEAAEALLNMDSPGPMLDEKRINNNIFSSPEDDMVVAPVTHVSVTLDGIPEVMETQQVQEKYADSPGASSPEQPKRKKGRKTKPPRPDSPATTPNISVKKKNKDGKGNTIYLWEFLLALLQDKATCPKYIKWTQREKGIFKLVDSKAVSRLWGKHKNKPDMNYETMGRALRYYYQRGILAKVEGQRLVYQFKEMPKDLIYINDEDPSSSIESSDPSLSSSATSNRNQTSRSRVSSSPGVKGGATTVLKPGNSKAAKPKDPVEVAQPSEVLRTVQPTQSPYPTQLFRTVHVVQPVQAVPEGEAARTSTMQDETLNSSVQSIRTIQAPTQVPVVVSPRNQQLHTVTLQTVPLTTVIASTDPSAGTGSQKFILQAIPSSQPMTVLKENVMLQSQKAGSPPSIVLGPAQVQQVLTSNVQTICNGTVSVASSPSFSATAPVVTFSPRSSQLVAHPPGTVITSVIKTQETKTLTQEVEKKESEDHLKENTEKTEQQPQPYVMVVSSSNGFTSQVAMKQNELLEPNSF
B6: SCMH1, Q96GD3 (protein)
chain: MLVCYSVLACEILWDLPCSIMGSPLGHFTWDKYLKETCSVPAPVHCFKQSYTPPSNEFKISMKLEAQDPRNTTSTCIATVVGLTGARLRLRLDGSDNKNDFWRLVDSAEIQPIGNCEKNGGMLQPPLGFRLNASSWPMFLLKTLNGAEMAPIRIFHKEPPSPSHNFFKMGMKLEAVDRKNPHFICPATIGEVRGSEVLVTFDGWRGAFDYWCRFDSRDIFPVGWCSLTGDNLQPPGTKVVIPKNPYPASDVNTEKPSIHSSTKTVLEHQPGQRGRKPGKKRGRTPKTLISHPISAPSKTAEPLKFPKKRGPKPGSKRKPRTLLNPPPASPTTSTPEPDTSTVPQDAATIPSSAMQAPTVCIYLNKNGSTGPHLDKKKVQQLPDHFGPARASVVLQQAVQACIDCAYHQKTVFSFLKQGHGGEVISAVFDREQHTLNLPAVNSITYVLRFLEKLCHNLRSDNLFGNQPFTQTHLSLTAIEYSHSHDRYLPGETFVLGNSLARSLEPHSDSMDSASNPTNLVSTSQRHRPLLSSCGLPPSTASAVRRLCSRGVLKGSNERRDMESFWKLNRSPGSDRYLESRDASRLSGRDPSSWTVEDVMQFVREADPQLGPHADLFRKHEIDGKALLLLRSDMMMKYMGLKLGPALKLSYHIDRLKQGKF

biological target: nucleoprotein N of Crimean-Congo hemorrhagic fever virus; assay: AlphaScreen luminescence signal relative to Venus negative control (fold); higher = stronger binding to CCHFV N
Procedure: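 AlphaScreen binding of cell-free made, FLAG-GST-tagged human transcription factors and regulators (crude translation products) to biotinylated N protein; signal as fold of the FLAG-GST-Venus control. One pass.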

Question: Which AlphaScreen luminescence signal does the source give for B1 here?
Answer: 3.44

Question: How did the AlphaScreen luminescence signal turn out when B2 was run?
Answer: 1.16

Question: With B3 as the binder, how does the AlphaScreen luminescence signal read?
Answer: 2.33

Question: Which AlphaScreen luminescence signal does the source give for B4 here?
Answer: 2.51

Question: How did the AlphaScreen luminescence signal turn out when B5 was run?
Answer: 2.19

Question: For B6, which AlphaScreen luminescence signal is on record?
Answer: 3.67
